Measured values reported in the supplement of paper PMC10724272.

What follows are test systems tested with CCCCCOc1ccc(-c2ccc(-c3ccc(C(=O)N[C@H]4C[C@@H](O)[C@@H](O)NC(=O)[C@@H]5[C@@H](O)[C@@H](C)CN5C(=O)[C@H]([C@@H](C)O)NC(=O)[C@H]([C@H](O)[C@@H](O)c5ccc(O)cc5)NC(=O)[C@@H]5C[C@@H](O)CN5C(=O)[C@H]([C@@H](C)O)NC4=O)cc3)cc2)cc1 [anidulafungin] (assay: CLSI broth microdilution.).

| Test System | MIC |
| --- | --- |
| Candida tropicalis isolate 66 (ERG11 copies: 2, Erg11p: Y132F, S154F (heterozygous)) | 0.03 mg/L [S] |
| Candida tropicalis isolate 120 (ERG11 copies: 2, Erg11p: no key change) | 0.03 mg/L [S] |
| Candida tropicalis isolate 73 (ERG11 copies: 2, Erg11p: no key change) | 0.03 mg/L [S] |
| Candida tropicalis isolate 105 (ERG11 copies: 2, Erg11p: no key change) | 0.12 mg/L [S] |
| Candida tropicalis isolate 396 (ERG11 copies: 2, Erg11p: Y132F, S154F (heterozygous)) | 0.25 mg/L [S] |
| Candida tropicalis isolate 251 (ERG11 copies: 2, Erg11p: no key change) | 0.12 mg/L [S] |
| Candida tropicalis isolate 87 (ERG11 copies: 7, Erg11p: Y132F, S154F (heterozygous)) | ≤ 0.015 mg/L [S] |
| Candida tropicalis isolate 438 (ERG11 copies: 2, Erg11p: Y132F, S154F (heterozygous)) | 0.12 mg/L [S] |
| Candida tropicalis isolate 445 (ERG11 copies: 5, Erg11p: Y132F, S154F (heterozygous)) | 0.12 mg/L [S] |
| Candida tropicalis isolate 34 (ERG11 copies: 5, Erg11p: Y132F, S154F (heterozygous)) | 0.12 mg/L [S] |
| Candida tropicalis isolate 107 (ERG11 copies: 7, Erg11p: Y132F, S154F (heterozygous)) | 0.03 mg/L [S] |
| Candida tropicalis isolate 439 (ERG11 copies: 2, Erg11p: no key change) | 0.03 mg/L [S] |
| Candida tropicalis isolate 159 (ERG11 copies: 2, Erg11p: no key change) | 0.12 mg/L [S] |
| Candida tropicalis isolate 142 (ERG11 copies: 2, Erg11p: no key change) | 0.5 mg/L |
| Candida tropicalis isolate 331 (ERG11 copies: 2, Erg11p: no key change) | 0.06 mg/L [S] |
| Candida tropicalis isolate 327 (ERG11 copies: 2, Erg11p: no key change) | 0.12 mg/L [S] |
| Candida tropicalis isolate 384 (ERG11 copies: 2, Erg11p: no key change) | 0.06 mg/L [S] |
| Candida tropicalis isolate 356 (ERG11 copies: 2, Erg11p: no key change) | 0.12 mg/L [S] |
| Candida tropicalis isolate 259 (ERG11 copies: 4, Erg11p: Y132F, S154F (heterozygous)) | 0.12 mg/L [S] |
| Candida tropicalis isolate 254 (ERG11 copies: 2, Erg11p: no key change) | 0.03 mg/L [S] |
| Candida tropicalis isolate 325 (ERG11 copies: 2, Erg11p: no key change) | 0.03 mg/L [S] |
| Candida tropicalis isolate 376 (ERG11 copies: 2, Erg11p: no key change) | 0.12 mg/L [S] |
| Candida tropicalis isolate 393 (ERG11 copies: 2, Erg11p: no key change) | ≤ 0.015 mg/L [S] |
| Candida tropicalis isolate 96 (ERG11 copies: 2, Erg11p: no key change) | 0.06 mg/L [S] |
| Candida tropicalis isolate 403 (ERG11 copies: 2, Erg11p: no key change) | 0.06 mg/L [S] |
| Candida tropicalis isolate 191 (ERG11 copies: 2, Erg11p: no key change) | ≤ 0.015 mg/L [S] |
| Candida tropicalis isolate 174 (ERG11 copies: 2, Erg11p: no key change) | 0.03 mg/L [S] |

What follows are test systems tested with C[C@@H](c1ncncc1F)[C@](O)(Cn1cncn1)c1ccc(F)cc1F [voriconazole] (assay: CLSI broth microdilution.).

| Test System | MIC |
| --- | --- |
| Candida tropicalis isolate 383 (ERG11 copies: 2, Erg11p: no key change) | 0.06 mg/L [S] |
| Candida tropicalis isolate 305 (ERG11 copies: 2, Erg11p: no key change) | 0.06 mg/L [S] |
| Candida tropicalis isolate 35 (ERG11 copies: 2, Erg11p: no key change) | 0.06 mg/L [S] |
| Candida tropicalis isolate 399 (ERG11 copies: 2, Erg11p: no key change) | ≥ 8 mg/L [R] |
| Candida tropicalis isolate 106 (ERG11 copies: 2, Erg11p: no key change) | 0.03 mg/L [S] |
| Candida tropicalis isolate 322 (ERG11 copies: 2, Erg11p: no key change) | 0.03 mg/L [S] |
| Candida tropicalis isolate 178 (ERG11 copies: 2, Erg11p: no key change) | 0.12 mg/L [S] |
| Candida tropicalis isolate 223 (ERG11 copies: 8, Erg11p: Y132F, S154F (heterozygous)) | ≥ 8 mg/L [R] |
| Candida tropicalis isolate 197 (ERG11 copies: 2, Erg11p: no key change) | 0.5 mg/L |
| Candida tropicalis isolate 66 (ERG11 copies: 2, Erg11p: Y132F, S154F (heterozygous)) | 2 mg/L [R] |
| Candida tropicalis isolate 120 (ERG11 copies: 2, Erg11p: no key change) | 0.12 mg/L [S] |
| Candida tropicalis isolate 73 (ERG11 copies: 2, Erg11p: no key change) | 0.06 mg/L [S] |
| Candida tropicalis isolate 105 (ERG11 copies: 2, Erg11p: no key change) | 0.25 mg/L |
| Candida tropicalis isolate 396 (ERG11 copies: 2, Erg11p: Y132F, S154F (heterozygous)) | 2 mg/L [R] |
| Candida tropicalis isolate 251 (ERG11 copies: 2, Erg11p: no key change) | 0.03 mg/L [S] |
| Candida tropicalis isolate 87 (ERG11 copies: 7, Erg11p: Y132F, S154F (heterozygous)) | ≥ 8 mg/L [R] |
| Candida tropicalis isolate 438 (ERG11 copies: 2, Erg11p: Y132F, S154F (heterozygous)) | 2 mg/L [R] |
| Candida tropicalis isolate 445 (ERG11 copies: 5, Erg11p: Y132F, S154F (heterozygous)) | ≥ 8 mg/L [R] |

| Test System | MIC |
| --- | --- |
| Candida tropicalis isolate 34 (ERG11 copies: 5, Erg11p: Y132F, S154F (heterozygous)) | ≥ 8 mg/L [R] |
| Candida tropicalis isolate 107 (ERG11 copies: 7, Erg11p: Y132F, S154F (heterozygous)) | ≥ 8 mg/L [R] |
| Candida tropicalis isolate 439 (ERG11 copies: 2, Erg11p: no key change) | 0.25 mg/L |
| Candida tropicalis isolate 159 (ERG11 copies: 2, Erg11p: no key change) | 0.12 mg/L [S] |
| Candida tropicalis isolate 142 (ERG11 copies: 2, Erg11p: no key change) | 0.015 mg/L [S] |
| Candida tropicalis isolate 331 (ERG11 copies: 2, Erg11p: no key change) | ≥ 8 mg/L [R] |
| Candida tropicalis isolate 327 (ERG11 copies: 2, Erg11p: no key change) | 0.06 mg/L [S] |
| Candida tropicalis isolate 384 (ERG11 copies: 2, Erg11p: no key change) | 0.12 mg/L [S] |
| Candida tropicalis isolate 356 (ERG11 copies: 2, Erg11p: no key change) | 0.06 mg/L [S] |
| Candida tropicalis isolate 259 (ERG11 copies: 4, Erg11p: Y132F, S154F (heterozygous)) | ≥ 8 mg/L [R] |
| Candida tropicalis isolate 254 (ERG11 copies: 2, Erg11p: no key change) | 0.03 mg/L [S] |
| Candida tropicalis isolate 325 (ERG11 copies: 2, Erg11p: no key change) | 0.25 mg/L |
| Candida tropicalis isolate 376 (ERG11 copies: 2, Erg11p: no key change) | 0.12 mg/L [S] |
| Candida tropicalis isolate 393 (ERG11 copies: 2, Erg11p: no key change) | 0.25 mg/L |
| Candida tropicalis isolate 96 (ERG11 copies: 2, Erg11p: no key change) | 0.03 mg/L [S] |
| Candida tropicalis isolate 403 (ERG11 copies: 2, Erg11p: no key change) | 0.06 mg/L [S] |
| Candida tropicalis isolate 191 (ERG11 copies: 2, Erg11p: no key change) | 0.06 mg/L [S] |
| Candida tropicalis isolate 174 (ERG11 copies: 2, Erg11p: no key change) | 0.12 mg/L [S] |

What follows are test systems tested with Nc1[nH]c(=O)ncc1F [flucytosine] (assay: CLSI broth microdilution.).

| Test System | MIC |
| --- | --- |
| Candida tropicalis isolate 383 (ERG11 copies: 2, Erg11p: no key change) | 0.12 mg/L [S] |
| Candida tropicalis isolate 305 (ERG11 copies: 2, Erg11p: no key change) | ≤ 0.06 mg/L [S] |
| Candida tropicalis isolate 35 (ERG11 copies: 2, Erg11p: no key change) | ≤ 0.06 mg/L [S] |
| Candida tropicalis isolate 399 (ERG11 copies: 2, Erg11p: no key change) | ≤ 0.06 mg/L [S] |
| Candida tropicalis isolate 106 (ERG11 copies: 2, Erg11p: no key change) | ≤ 0.06 mg/L [S] |
| Candida tropicalis isolate 322 (ERG11 copies: 2, Erg11p: no key change) | ≤ 0.06 mg/L [S] |
| Candida tropicalis isolate 178 (ERG11 copies: 2, Erg11p: no key change) | ≤ 0.06 mg/L [S] |
| Candida tropicalis isolate 223 (ERG11 copies: 8, Erg11p: Y132F, S154F (heterozygous)) | ≤ 0.06 mg/L [S] |
| Candida tropicalis isolate 197 (ERG11 copies: 2, Erg11p: no key change) | ≤ 0.06 mg/L [S] |
| Candida tropicalis isolate 66 (ERG11 copies: 2, Erg11p: Y132F, S154F (heterozygous)) | ≤ 0.06 mg/L [S] |
| Candida tropicalis isolate 120 (ERG11 copies: 2, Erg11p: no key change) | 0.12 mg/L [S] |
| Candida tropicalis isolate 73 (ERG11 copies: 2, Erg11p: no key change) | 0.12 mg/L [S] |
| Candida tropicalis isolate 105 (ERG11 copies: 2, Erg11p: no key change) | ≤ 0.06 mg/L [S] |
| Candida tropicalis isolate 396 (ERG11 copies: 2, Erg11p: Y132F, S154F (heterozygous)) | 0.12 mg/L [S] |
| Candida tropicalis isolate 251 (ERG11 copies: 2, Erg11p: no key change) | ≤ 0.06 mg/L [S] |
| Candida tropicalis isolate 87 (ERG11 copies: 7, Erg11p: Y132F, S154F (heterozygous)) | ≤ 0.06 mg/L [S] |
| Candida tropicalis isolate 438 (ERG11 copies: 2, Erg11p: Y132F, S154F (heterozygous)) | 0.12 mg/L [S] |
| Candida tropicalis isolate 445 (ERG11 copies: 5, Erg11p: Y132F, S154F (heterozygous)) | ≤ 0.06 mg/L [S] |

MIC of invasive clinical C. tropicalis isolates, CLSI broth microdilution (fluconazole 0.12-256 mg/L, up to 1,024 for the azole-resistant cluster and its neighbour group; other ranges not stated); higher = less susceptible. Call: susceptible or wild type [S] / resistant or non-wild type [R] by CLSI breakpoints or cut-offs; intermediate and dose-dependent carry no call. '<=' and '>=' at the end values are inferred; the source marks only some of them. Isolates are numbered anew.
